The text below walks through data of PubChem BioAssay AID1159614 (National Center for Advancing Translational Sciences (NCATS), 2016).

In all, about 45,000 compounds went through this assay and about 65 (0.1%) were called active. Calls come from the whole dose curve; as a rule, active = well fitted activation curve with a large enough effect; inconclusive = small, poorly fitted or top-dose-only effect; inactive = no such curve, though single readings can be large or run the other way. Some of the results follow.
Potency is the fitted concentration of half-maximal effect.

Chain of UniProt P54803 (P54803 whole entry, looked up): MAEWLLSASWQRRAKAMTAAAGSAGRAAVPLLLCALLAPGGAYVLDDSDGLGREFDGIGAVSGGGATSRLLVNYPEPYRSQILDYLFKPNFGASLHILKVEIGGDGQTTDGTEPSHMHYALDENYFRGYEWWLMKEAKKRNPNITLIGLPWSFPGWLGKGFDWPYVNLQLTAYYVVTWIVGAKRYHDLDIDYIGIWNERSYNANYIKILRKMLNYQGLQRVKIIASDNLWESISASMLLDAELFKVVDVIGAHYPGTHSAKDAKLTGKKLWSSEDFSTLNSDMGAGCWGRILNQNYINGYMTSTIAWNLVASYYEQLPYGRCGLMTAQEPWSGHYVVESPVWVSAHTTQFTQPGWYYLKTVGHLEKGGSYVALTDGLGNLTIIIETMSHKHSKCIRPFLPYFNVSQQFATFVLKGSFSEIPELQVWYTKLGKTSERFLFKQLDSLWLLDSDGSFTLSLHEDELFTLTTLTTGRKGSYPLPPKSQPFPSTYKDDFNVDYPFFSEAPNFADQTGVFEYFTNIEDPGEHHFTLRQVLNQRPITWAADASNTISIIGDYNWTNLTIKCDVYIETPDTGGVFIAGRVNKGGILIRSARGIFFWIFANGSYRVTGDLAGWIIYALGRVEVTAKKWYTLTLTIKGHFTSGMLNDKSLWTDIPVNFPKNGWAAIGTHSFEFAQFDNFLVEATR

The target of this assay is Galactocerebrosidase (Homo sapiens) (UniProt P54803). Nature of the assay: A Novel Cell-Based Assay to Identify Small Molecules for B -Galactocerebrosidase. For activation: 0% is about no effect. Note: nearly all actives have a fitted effect of over 65% in size. The settings on record: 145M-Twi-hGALC-G270D cells (Twitcher mouse brain line with human GALC G270D), HMU-beta-Gal fluorescence, 48 h; series mostly up to 57.5 µM; activation: at the top concentration. The essentials:
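Brain-derived Twitcher mouse 145M-Twi cells stably expressing human GALC-G270D or wild-type GALC, treated live, then residual GALC activity read by fluorescence of HMU-b-Gal substrate (0.1 mM final) in citrate-phosphate buffer pH 5.2 with sodium taurocholate. Signal increase indicates enhancement.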
On to `O=C(C1COc2ccccc2O1)N(Cc1cccnc1)c1nc2ccc(F)cc2s1` (stereo unspecified), for which the “activation” value was inactive: -8.85%.
The same measure, in the same setting: as for `CCOc1ccc(CCNC(=O)c2ccc3[nH]c(C)c(C)c3c2)cc1`, the figure is inactive: -6.35%; as for `Cc1ccc2scc(N3CCN(c4ccccc4)CC3)c(=O)c2c1`, inactive: -13.4%.
Same read-out and setting: as for `O=C(CSCc1nc2cccnc2n1C1CCCCC1)NCc1cccc(Br)c1`, the figure is inactive: -2.02%.
Still for that read-out and setting: the value for `O=C(OCc1ccccc1)c1ccc(-c2nnn(Cc3ccccc3F)n2)cc1` was inactive: 0.706%.
As to `CCOC(=O)c1sc(N2C(=O)c3oc4ccc(F)cc4c(=O)c3C2c2cccc(OC)c2)nc1C` (stereo unspecified), the “activation” value is inactive: -8.36%.
Same read-out and setting: as for `CCN(C(=O)Cn1c(SCc2ccccc2F)nc2cccnc21)c1ccccc1`, the figure is inactive: -0.545%; as for `Cc1cc(N2CCCCC2)nc2ccc(NC(=O)CCC(=O)N3CCN(c4cccc(Cl)c4)CC3)cc12`, inactive: -4.14%.
The same measure, in the same setting: as for `COc1ccc(N2CC(NC(=O)/C=C\c3ccccc3)CC2=O)cc1` (stereo unspecified), the figure is inactive: 8.98%.
As for `C[C@@H](NCCCc1cccc(C(F)(F)F)c1)c1cccc2ccccc12`, the “activation” value was inactive: -10%.
`O=C(Cn1c(SCCOc2ccccc2)nc2ccccc21)N1CCOCC1`: the “activation” value was inactive: -24%.
Same read-out and setting: the value for `COc1cccc(CNC(=O)C(=O)NCC(c2ccco2)S(=O)(=O)c2cccs2)c1` (stereo unspecified) was inactive: -4.89%.
On the same count and under the same terms, as for `CC(=O)N1CCc2cc(CNC(=O)Cc3ccc(F)cc3)ccc21`, the figure is inactive: -29.4%; as for `CCOc1ccccc1CNC(=O)C1CCN(C(=O)N2CC(CC)Oc3ccc(C)cc32)CC1` (stereo unspecified), inactive: -14.4%; as for `O=C(/C=C/c1ccccc1)N1CCN(Cc2cc(=O)n3nc(-c4ccccc4F)sc3n2)CC1`, inactive: -24.1%.
On to `CC(C)(C)C(=O)Cn1c(=O)n(-c2ccc(Cl)cc2)c(=O)c2c3c(sc21)CCCC3`, for which the “activation” value was inactive: -11.4%.
Still for that read-out and setting: the value for `O=C(Nc1ccc2nc(SCC(=O)N3CCOCC3)sc2c1)c1cccc(Cl)c1` was inactive: -11.6%; that for `Cc1c(C(=O)OCCOc2ccccc2)[nH]c2c1C(=O)CC(c1ccccc1)C2` (stereo unspecified) was inactive: -20.5%; that for `Cc1cc(OCCn2cc(C(=O)c3cccs3)c3ccccc32)ccc1Cl` was inactive: -8.64%.
Turning to `Cc1c(Cl)cccc1NC(=O)COCc1cc(-c2ccc3c(c2)OCO3)on1`, the “activation” value was inactive: -4.38%.
Same read-out and setting: the value for `Cc1nc2c(-c3ccccc3)c(C)nn2c(C)c1CCC(=O)N1CCN(c2ccc(F)cc2)CC1` was inactive: -17.4%; that for `COc1cccc(CNC(=O)CCc2c(C)nc3c(c(C)nn3-c3ccc(C)c(C)c3)c2C)c1` was inactive: -20.1%; that for `Cc1cccc(N2CCN(CCCNc3ncnc4onc(-c5ccc(Cl)cc5)c34)CC2C)c1` (stereo unspecified) was inactive: -18.2%.
The same measure, in the same setting: as for `CSc1ccc(CCNC(=O)c2ccc(-c3nc(COc4ccccc4)c(C)o3)cc2)cc1`, the figure is inactive: -21.3%.
For `Cc1ccc(Cn2ccn(Cc3ccccc3F)c(=O)c2=O)cc1`, the “activation” value was inactive: -10.7%.
The same measure, in the same setting: as for `COc1ccc(NC(=O)Cn2c(=O)n(CCC(=O)NCc3ccccc3OC)c(=O)c3ccccc32)cc1Cl`, the figure is inactive: -7.27%; as for `COc1ccc(Cl)cc1N(C)C(=O)c1ccc2c(=O)n3c(nc2c1)CCCCC3`, inactive: -7.43%; as for `COc1ccc(CCNC(=O)CCn2c(=O)c3ccccc3n(Cc3cc(C)ccc3C)c2=O)cc1OC`, inactive: -13.2%.
Still for that read-out and setting: as for `Cc1cccc(NC(=O)c2ccc3snnc3c2)c1`, the figure is inactive: -9.43%; as for `CCN1CCOC(=O)C1CC(=O)Nc1cc(C)ccc1OC` (stereo unspecified), inactive: -14.8%.
On the same count and under the same terms, as for `Cc1ccc2nc(-c3ccc(Cl)c(NC(=O)COc4cccc(C)c4C)c3)oc2c1`, the figure is inactive: -4.06%; as for `Cc1cc2c(cc1NS(=O)(=O)c1ccc(F)cc1)n(C)c(=O)c(=O)n2C`, inactive: -8.72%.
Regarding `CCc1cccc(C)c1NS(=O)(=O)c1cc2[nH]c(=O)c(=O)[nH]c2cc1C`, the “activation” value is inactive: -3.97%.
In the case of `CCN(CC)c1ccc(NC(=O)CCS(=O)(=O)c2cc3c(cc2Cl)NC(=O)CO3)c(C)c1`, the “activation” value was inactive: -13.5%.
As to `CCCc1cc(=O)[nH]c2nnc(SC(C)CC)n12` (stereo unspecified), the “activation” value was inactive: -1.99%.
The same measure, in the same setting: the value for `CCOC(=O)c1sc(NC(=O)/C=C/c2ccc(C(C)C)cc2)c(C(=O)OCC)c1C` was inactive: -21.3%.
`Cc1cc(NS(=O)(=O)c2ccc(NC(=O)c3ccccc3C)cc2)nc(C)n1`: the “activation” value was inactive: -9.92%.
Regarding `COc1ccc(N(C(=O)c2ccc(OC)c(OC)c2)S(=O)(=O)c2ccc(Cl)cc2)cc1`, the “activation” value was inactive: -13.1%.
On the same count and under the same terms, the value for `COc1cccc(NC(=O)CSc2nnc3scc(-c4ccc(Cl)cc4)n23)c1` was inactive: -16.9%; that for `Cc1ccc(C)c(NC(=O)CC2NCCNC2=O)c1` (stereo unspecified) was inactive: 4.41%; that for `CCc1nnc(SCC(=O)Nc2ccccc2Cl)nc1CC` was inactive: -6.76%.
The same measure, in the same setting: the value for `CC(C)COc1ccc(C(=O)NCC2(N3CCN(C)CC3)CCCCC2)cc1` was inactive: -26.7%; that for `COCCNC(=O)Cn1nc(C)c2c(C)n(-c3ccc(C)cc3)nc2c1=O` was inactive: -10%; that for `CCc1ccc2ncc3c(-c4ccccc4)nn(-c4ccccc4)c3c2c1` was inactive: 28.1%.
In the case of `CCc1ccc(NCc2cc3cc4c(cc3n(CC(=O)Nc3cccc(OC)c3)c2=O)OCO4)cc1`, the Potency was active: 28.2 µM.
For the molecule `CCCN(CCC)C(=O)Cn1c(=O)n(-c2cccc(OC)c2)c(=O)c2c3c(sc21)CCCC3`, the “activation” value is inactive: -13.3%.
In the case of `Cc1ccn2c(=O)cc(COc3ccc(NC(=O)COc4ccc(Cl)cc4)cc3)nc2c1`, the “activation” value was inactive: -5.46%.
The same measure, in the same setting: the value for `CCCC(C(=O)NCc1cccc(Cl)c1)N1Cc2ccccc2C1=O` (stereo unspecified) was inactive: -15.8%; that for `O=C(CCCCn1c(=O)c2ccccc2n(Cc2ccccc2Cl)c1=O)NCCc1ccccc1` was inactive: -1.27%; that for `Cc1csc2nc(COC(=O)c3cccc(NC(=O)COc4ccc(Cl)cc4)c3)cc(=O)n12` was inactive: -10.3%.
Still for that read-out and setting: as for `N#Cc1ccccc1Cn1c(=O)n(CCCC(=O)NCc2ccc3c(c2)OCO3)c(=O)c2sccc21`, the figure is inactive: -9.51%; as for `Cc1ccc(NC(=O)C2CCCN(c3nnc(-n4c(C)ccc4C)s3)C2)c(C)c1` (stereo unspecified), inactive: 12.2%; as for `CC(=O)N1c2c(cc(Br)cc2S(=O)(=O)N2CCN(c3cc(C)ccc3C)CC2)CC1C` (stereo unspecified), inactive: -12.4%.
On the same count and under the same terms, as for `Cc1ccccc1CN1C(=O)c2ccccc2S(=O)c2ccc(C(=O)NC3CCC(C)CC3)cc21` (stereo unspecified), the figure is inactive: 1.41%; as for `Cc1ccc(S(=O)(=O)c2nnn3c2nc(N2CCCC2)c2sccc23)cc1C`, inactive: -8.02%; as for `Cc1ccc(S(=O)(=O)c2nnn3c2nc(N2CCN(c4ccccc4F)CC2)c2cc(Cl)ccc23)cc1C`, inactive: -15.1%.
Turning to `O=C(c1ccc2c(c1)N(Cc1cccc(F)c1)C(=O)c1ccccc1S2)N1CCOCC1`, the “activation” value is inactive: -8.63%.
On the same count and under the same terms, as for `COc1ccc(/C=C/C(=O)Nc2ccc3nc4c(c(Nc5ccccc5OC)c3c2)CCCC4)cc1`, the figure is inactive: -12.6%.
Same read-out and setting: as for `COc1ccc(OC)c(NC(=O)C2=C(C)C(=O)OC23CCCCCC3)c1`, the figure is inactive: 13.4%; as for `CC1=C(C#N)C(NC(=O)c2ccccc2Cl)(C(F)(F)F)C(=O)N1` (stereo unspecified), inactive: -9.28%.
As for `CCc1ccc(NC(=O)c2sc3nc(C)c(Cl)c(C)c3c2NC(=O)c2ccccc2OC)cc1`, the “activation” value was inactive: -7.92%.
The same measure, in the same setting: as for `Cc1ccc2c(=O)cc(C(=O)Nc3nc4ccc(Cl)cc4s3)oc2c1C`, the figure is inactive: -11%.
Same read-out and setting: the value for `CCOCCc1nn2c(=O)cc(COC(=O)CNC(=O)c3cccc(C)c3)nc2s1` was inactive: -12.9%; that for `O=C(COc1ccc(Cl)cc1)Nc1nnc(S(=O)(=O)N2CCc3ccccc32)s1` was inactive: -8.54%.
With `CCN(C(=O)CSc1nc2ncccc2[nH]1)c1ccc(C(C)C)cc1`, the “activation” value was inactive: -12.2%.
Same read-out and setting: the value for `COc1cccc(-c2ncnn2-c2sc3c(c2C#N)CCCCC3)c1OC` was inactive: -14.4%.
Same read-out and setting: the value for `Cc1ccc(CN(C(=O)COc2ccc([N+](=O)[O-])cc2)c2ccccn2)cc1` was inactive: -23.7%; that for `CCN(CC)CCCNC(=O)c1cn(C)c2ccc(S(=O)(=O)N(C)C3CCCCC3)cc2c1=O` was inactive: -20.7%.
The same measure, in the same setting: the value for `CCN(CC)CCCNC(=O)c1cnc(SC)nc1-c1ccccc1` was inactive: -12.7%.
Consider `CC(C)c1ccc(NC(=O)Cn2cc(S(=O)(=O)N3CCN(c4ccccc4F)CC3)c3ccccc3c2=O)cc1`, for which the “activation” value is inactive: -0.22%.
The same measure, in the same setting: the value for `COc1ccccc1NC(=O)c1c(NCc2ccc(OC)c(OC)c2OC)sc2c1CCC2` was inactive: -6.57%.
Turning to `CCOC(=O)c1c(C)[nH]c(C)c1S(=O)(=O)N(C)CC(=O)N1CCN(c2ccccc2)CC1`, the “activation” value was inactive: -11.6%.
Same read-out and setting: as for `CCOc1ccc(NC(=O)c2cnc(N3CCCC3)nc2C)cc1`, the figure is inactive: -0.658%; as for `COc1ccc(CNc2nc3c(-c4cccc(C)c4)nnn3c3ccccc23)cc1`, inactive: -5.36%.
For `CCOc1ccc(CCNC(=O)c2cn(C)c3ccc(S(=O)(=O)N4CCCCCC4)cc3c2=O)cc1OCC`, the “activation” value was inactive: -4.5%.
On the same count and under the same terms, the value for `Cc1nn(CC(=O)N2CCC(C)CC2)c(=O)c2cc3sccc3n12` was inactive: -17.5%; that for `Cc1c(C(=O)NCC(c2ccc(Cl)cc2)N2CCOCC2)oc2ccccc12` (stereo unspecified) was inactive: -3.07%; that for `CCOc1ccc(N2CC(c3nc4ccccc4n3CCCOc3ccccc3)CC2=O)cc1` (stereo unspecified) was inactive: -21.4%.
For `CCCCOC(=O)c1ccc(NC(=O)c2cc3c(=O)n4cccc(C)c4nc3s2)cc1`, the “activation” value is inactive: -10.3%.
As for `CCCNC(=O)CCc1nnc2ccc(N3CCN(c4cccc(OC)c4)CC3)nn12`, the “activation” value was inactive: 0.28%.
Same read-out and setting: as for `CCCCN(C)CCNC(=O)c1c2c(nc3ccccc13)C(=O)N(C1CCCCC1)C2`, the figure is inactive: -15.4%; as for `Cc1cc(Cl)ccc1OCc1nc(-c2ccc(-n3cccc3)cc2)no1`, inactive: -8%; as for `OC(Cn1cncn1)(Cn1cncn1)c1ccc(F)cc1F`, inactive: -20.7%.
Same read-out and setting: as for `CCC(=O)N1CCc2cc(Br)cc(S(=O)(=O)CCC(=O)NCCc3cccc(C)c3)c21`, the figure is inactive: -3.22%; as for `Cc1ccc(-n2c(=O)c3cccnc3n2CC(=O)Nc2ccc(Br)cc2)cc1C`, inactive: -8.59%.
Still for that read-out and setting: as for `Cc1ccc(NC(=O)CCn2c(=O)c3cccn3c3ccccc32)cc1C`, the figure is inactive: -0.317%; as for `Cc1ccc(CN2CCC(CNC(=O)Nc3ccc(Cl)cc3)C2)cc1` (stereo unspecified), inactive: -13.1%.
As to `CC(C)(C)OC(=O)N1CCC(c2c(C(=O)NCCN3CCc4ccccc4C3)cnn2-c2ccc(F)cc2F)CC1`, the “activation” value is inactive: -2.41%.
Still for that read-out and setting: as for `CCOC(=O)N1CCc2c(sc(NCc3sccc3C)c2C(=O)Nc2ccc(OC)cc2OC)C1`, the figure is inactive: -2.25%; as for `Cn1ncc2c(N3CCN(c4cccc(Cl)c4)CC3)ncnc21`, inactive: -1.26%; as for `Cc1cc(C)cc(NC(=O)C(Cc2ccccc2)NS(=O)(=O)c2ccc3c(c2)c(=O)n(C)c(=O)n3C)c1` (stereo unspecified), inactive: 2.14%.
Same read-out and setting: the value for `CC(Oc1ccc(F)cc1)C(=O)N1CCC(c2nc3ccccc3s2)CC1` (stereo unspecified) was inactive: -7.89%; that for `CCOc1ccc(Oc2nc(NCC(C)C)nc(N3CCOCC3)n2)nn1` was inactive: -16.6%; that for `COc1ccccc1N1CCN(C(=O)c2nc(SC)ncc2Cl)CC1` was inactive: -9.65%.
Same read-out and setting: as for `COc1ccc(C)cc1NC(=O)CCS(=O)(=O)c1cc2c3c(c1)CCN3C(=O)CC2`, the figure is inactive: -10.2%; as for `O=C(Nc1cc(C(F)(F)F)ccc1Cl)c1nc2ccccc2nc1N1CCCCC1`, inactive: -13%.
